Measured values: the supplement of paper PMC3334620
Over roughly 33,000 sequences, “E-score (-0.5 to 0.5)” has its median near -0.032; the highest 2% begin near 0.36. Some of the results follow.

What follows are sequences tested against T1, Sko1 (UniProt Q02100) (assay: PBM E-score (8-mer binding enrichment) (E-score (-0.5 to 0.5)); higher = stronger / more preferred TF binding; most listed sequences are background and not binding sites). Conditions: protein concentration: 200 nM; construct: GST-full length.
T1 sequence: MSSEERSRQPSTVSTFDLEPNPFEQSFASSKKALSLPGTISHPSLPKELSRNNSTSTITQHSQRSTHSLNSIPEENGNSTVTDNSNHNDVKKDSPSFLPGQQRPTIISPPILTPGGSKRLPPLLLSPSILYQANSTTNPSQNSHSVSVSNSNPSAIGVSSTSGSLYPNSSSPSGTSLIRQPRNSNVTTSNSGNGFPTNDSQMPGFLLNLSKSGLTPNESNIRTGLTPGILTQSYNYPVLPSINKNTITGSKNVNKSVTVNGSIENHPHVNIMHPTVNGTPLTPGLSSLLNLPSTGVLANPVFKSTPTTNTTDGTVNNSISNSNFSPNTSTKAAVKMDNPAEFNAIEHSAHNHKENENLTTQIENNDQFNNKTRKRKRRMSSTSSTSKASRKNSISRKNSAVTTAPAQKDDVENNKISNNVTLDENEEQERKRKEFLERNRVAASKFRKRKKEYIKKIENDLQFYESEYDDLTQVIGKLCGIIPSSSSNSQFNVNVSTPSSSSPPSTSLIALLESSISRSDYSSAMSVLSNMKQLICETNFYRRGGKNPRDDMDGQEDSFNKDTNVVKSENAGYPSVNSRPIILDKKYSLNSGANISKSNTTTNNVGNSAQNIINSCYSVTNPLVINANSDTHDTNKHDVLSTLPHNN
Summary of the method: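 The E-score, a modified Wilcoxon-Mann-Whitney statistic, was computed by the Universal PBM Analysis Suite for every ungapped eight-base word pooled with its reverse complement. Scans behind it were normalised with masliner after bound GST-tagged yeast transcription factors were detected with fluorescent anti-GST. The proteins, at about 100-200 nM, had been applied to universal all-10-mer Agilent arrays made double-stranded by primer extension.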

| Sequence | PBM E-score |
| --- | --- |
| AAAATTTA | 0.177 |
| GCATCAAC | 0.0248 |
| CCTGTAAG | -0.134 |
| CTCGCATA | 0.0768 |
| ACTAGTCA | -0.0561 |
| AAGGGTTG | 0.104 |
| GTGCCAAA | -0.0151 |
| CCCGATAC | -0.0866 |
| CTACGAAC | 0.0886 |
| CCGGCCCA | -0.348 |
| AAGTTACC | 0.0687 |
| AAATATCA | 0.101 |
| ATACAGAT | 0.14 |
| TCTGAACA | 0.117 |
| CTATTAGA | 0.112 |
| ATGGTCTA | -0.0629 |
| CCAATAGG | -0.12 |
| GAAACGTC | 0.385 |
| AGAGTGAT | -0.116 |
| GTTAATTA | 0.281 |
| CTTTAACA | 0.0632 |
| AGCCGGGA | -0.121 |
| ACGGTTCT | -0.0413 |
| ATGTCAGC | 0.129 |
| ATGTTCTC | 0.0399 |

| Sequence | PBM E-score |
| --- | --- |
| CTACTTTC | 0.0651 |
| CGCGGCGA | -0.0754 |
| AACGGACG | -0.0457 |
| ATCGAGTA | -0.00257 |
| AGTTATGA | 0.123 |
| TCCACTCA | -0.132 |
| CTTTGTGC | 0.0814 |
| ATACCCTC | -0.0318 |
| CCGCATTA | -0.0763 |
| AAAATAAA | 0.198 |
| CGGTCGAC | -0.137 |
| GTGTGCGA | -0.0235 |
| GTTGAGGA | -0.0514 |
| TGATGCCA | 0.172 |
| CGGTTGTA | -0.164 |
| ATTCAAAA | 0.133 |
| CGGCGAAC | -0.28 |
| ACGAACTA | 0.228 |
| CTCTTCAA | -0.154 |
| GATTTTCC | -0.127 |
| AAACTGAC | 0.228 |
| ACTAATAG | 0.0895 |
| TCGGTCCA | 0.00791 |
| ATGGCGAC | -0.121 |
| GTACTGTA | -0.105 |

| Sequence | PBM E-score |
| --- | --- |
| AGCGAAGA | -0.11 |
| AAGCTCCG | -0.18 |
| AAACACAG | 0.0223 |
| TCGTCAAA | 0.281 |
| CCCGTTAC | 0.0449 |
| CTACGGTA | 0.0952 |
| CGGGGTGC | -0.333 |
| GAGATGTA | 0.105 |
| CTGCTGTA | -0.133 |
| GAAGAAGA | -0.109 |
| CCTGCTTA | -0.0415 |
| AAACTGCT | -0.127 |
| CTTGTTAA | -0.0398 |
| AACTGCCT | -0.0481 |
| ATCCCCTC | -0.162 |
| CGTACGAA | 0.269 |
| AAACTGTC | -0.107 |
| CTCCGGGA | -0.308 |
| AGATGCGA | -0.116 |
| CCAAGAGA | -0.252 |
| CATCTGCG | -0.0247 |
| CGTTTTGA | 0.189 |
| AGTTGAAA | 0.0183 |
| CCCTCTCC | -0.321 |
| ATATGTGA | 0.187 |

| Sequence | PBM E-score |
| --- | --- |
| CCGACAAG | -0.21 |
| CCAGTGGA | -0.17 |
| CTTCACAC | 0.0799 |
| ATAGTAGG | -0.0114 |
| AGGTTCAA | 0.124 |
| GGGCGGAC | -0.251 |
| TACCTAAA | 0.128 |
| CTGTGCGC | -0.113 |
| TGGCACAA | 0.0381 |
| ATAACTGA | 0.0367 |
| GTTGAAAC | 0.121 |
| GAGTAATA | 0.183 |
| ACATTACT | 0.0825 |
| AGACTCTC | -0.149 |
| CCATTAAC | 0.154 |
| TCGTGGAA | 0.0519 |
| CGAGATTA | 0.238 |
| AAGAAGCC | -0.0816 |
| AACGTCAT | 0.493 |
| AGTTAGGC | -0.0067 |
| AGCATCAA | 0.0245 |
| ACGTCCGG | 0.201 |
| GGGCTTTA | -0.328 |
| CACTTGTC | -0.18 |
| ACGCTGAA | -0.0879 |

| Sequence | PBM E-score |
| --- | --- |
| CTAGCCGA | -0.202 |
| TAACTCCA | -0.0944 |
| GCGCCTCC | 0.00621 |
| GTCCAACA | 0.046 |
| CTTATGGC | -0.0335 |
| AAGACCGT | -0.126 |
| AGTCCCGA | -0.274 |
| CTCGCTGC | -0.155 |
| ACCTAAGG | -0.0785 |
| ATGGGATG | -0.134 |
| CTGGCACA | -0.071 |
| ATTTTCGC | 0.0516 |
| AATAGCAC | -0.195 |
| GCGTAGTA | 0.279 |
| CAAATGAC | 0.294 |
| AACTCAAC | 0.0483 |
| GCCAGGCC | -0.373 |
| GTCATCAA | 0.33 |
| AAGCGAGA | -0.145 |
| ACCTCGGA | -0.19 |
| GACCCGGC | -0.297 |
| GCGGCACA | -0.283 |
| CACGTTGA | 0.25 |
| GGTTCGGA | -0.37 |
| TCTACAGA | 0.0146 |

| Sequence | PBM E-score |
| --- | --- |
| AGCAAACG | 0.0079 |
| ATGAGCGA | 0.102 |
| GTTTAGCA | 0.0596 |
| ATTTAACC | 0.0003 |
| AACAACTA | 0.0662 |
| TCCAGCGA | -0.12 |
| CGAGGAGC | -0.189 |
| GCAACTAC | 0.0852 |
| GCTAGCCA | -0.263 |
| CACGACTA | -0.0227 |
| CTCTATGC | -0.0516 |
| GTTACCGA | -0.129 |
| TAGAACAA | 0.0369 |
| CACGGGCC | -0.352 |
| CGGATTAA | 0.0258 |
| CGCGTATA | 0.244 |
| GTCCGAAC | -0.26 |
| AGGGGCAC | -0.0652 |
| CACAAACG | 0.191 |
| CCGTGGAC | -0.231 |
| CGGGATAA | 0.0877 |
| AGTTCAGG | -0.176 |
| AGTGGACA | 0.0063 |
| ATCTAGCG | -0.137 |
| CCTTTGGC | -0.297 |

| Sequence | PBM E-score |
| --- | --- |
| CACTAGAA | 0.023 |
| CGAATTTC | 0.195 |
| CACCTCCG | -0.239 |
| CCGGCGGC | -0.271 |
| CACGACAC | 0.0587 |
| CCACAAGA | -0.179 |
| ATAGCATG | 0.0235 |
| GGATAAAA | -0.0555 |
| AGACACAC | 0.148 |
| CGAACCCC | -0.174 |
| ATGTTGTC | 0.173 |
| AGGTGCGC | -0.224 |
| CTGAACCC | -0.261 |
| CCAACGAA | -0.0193 |
| GAATTCTA | 0.0361 |
| GTACTCCA | -0.0378 |
| GAAGTTCC | -0.302 |
| AAGTAACC | 0.0316 |
| GCGACAAC | 0.152 |
| GCCTAATA | 0.0113 |
| ATGCGTCA | 0.467 |
| TAGACCGA | -0.0276 |
